Consider 52 compounds from PubChem BioAssay AID1347073 (National Center for Advancing Translational Sciences (NCATS), 2019).

In all, about 45,000 compounds went through this assay and about 200 (0.44%) were called active. Roughly 7% stayed inconclusive and do not appear here. Calls follow the shape of the dose curve; as a rule, active = well fitted activation curve with a large enough effect; inconclusive = small, poorly fitted or top-dose-only effect; inactive = no such curve, though single readings can be large or run the other way. This is one part of the list.

The assay is described as follows: qHTS of TDP-43 Inhibitors: NCGC Sytravon Library Screen. Also: 0% is about no effect; nearly all actives have a fitted effect of over 55% in size. The settings on record: yeast TDP-43 toxicity rescue, BacTiter-Glo growth, 24 h; series mostly up to 46.1 µM; growth rescue (activation): at the top concentration. Put shortly:
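TDP-43-expressing yeast, pregrown in raffinose, seeded at OD600 0.02 in galactose medium with compound for 24 hr at 30 deg C. Growth read by BacTiter-Glo luminescence, so rescue of toxicity appears as activation.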
As to `Cc1ccc(N(CC(=O)NCCSCc2ccco2)S(=O)(=O)c2ccc(F)cc2)cc1`, the “growth rescue (activation)” value was inactive: 5.66%.

With `CCn1c(CNC(=O)c2ccco2)nnc1SCC(=O)Nc1ccccc1Cl`, the “growth rescue (activation)” value is inactive: 2.92%.

For `CCC(=O)N(NC1=NS(=O)(=O)c2ccccc21)S(=O)(=O)c1ccc(C)cc1`, the “growth rescue (activation)” value is inactive: 10.7%.

As for `CC1CC(CC(C)C(=O)NC(=S)Nc2ccc(S(N)(=O)=O)cc2)C(=O)O1` (configuration not stated), the “growth rescue (activation)” value was inactive: 0.795%.

For `O=C1N(Cc2cccc(Cl)c2)C[C@@H]2C[C@@H](c3cccn3-c3ccccn3)N3CCC[C@@]123`, the “growth rescue (activation)” value was inactive: 0.468%.

As to `CC(C)Nc1nc(NC(C)(C)C)nc(Oc2ccc(=O)n(-c3ccccc3)n2)n1`, the “growth rescue (activation)” value was inactive: 20.1%.

Regarding `Cc1cc(C)nc(SCC(=O)OCC(=O)Nc2ccccc2)n1`, the “growth rescue (activation)” value is inactive: 4.63%.

Turning to `CN1CCN(C(=O)c2ccc(-c3cnc4cccnn34)cc2)CC1`, the “growth rescue (activation)” value is inactive: -7.3%.

Regarding `CCNc1c(NS(=O)(=O)c2ccc(Br)s2)c(=O)oc2ccccc12`, the “growth rescue (activation)” value was inactive: 4.52%.

As to `O=C(c1cc([N+](=O)[O-])ccc1Cl)N1CCN(Cc2ccc3c(c2)OCO3)CC1`, the “growth rescue (activation)” value is inactive: 12.9%.

`Cc1csc(NC(=O)CS(=O)(=O)c2ccccc2)n1`: the “growth rescue (activation)” value was inactive: 9.56%.

For `COc1cccc(NC(=O)c2cccc(C)c2[N+](=O)[O-])c1`, the “growth rescue (activation)” value was inactive: 6.03%.

Consider `CCOc1ccc(-n2c(SCc3ccc([N+](=O)[O-])cc3)nnc2-c2ccc(OC)cc2)cc1`, for which the “growth rescue (activation)” value is inactive: 0.0104%.

As to `O=C(Nc1ccc(Cl)cc1)C1C2C=CC3(O2)C1C(=O)N(CCCN1CCCCC1)C3C(=O)NC1CCCCC1` (configuration not stated), the “growth rescue (activation)” value is inactive: 16.9%.

For `O=C(CSc1nnc(-c2ccccc2)n1Cc1ccccc1)NNC(=O)c1ccccc1O`, the “growth rescue (activation)” value is inactive: 9.22%.

Regarding `COc1ccccc1OCC(=O)Nc1cc(S(=O)(=O)N2CCOCC2)ccc1N1CCCCC1`, the “growth rescue (activation)” value was inactive: 26.3%.

As to `COC(=O)c1ccc(C)c(NC(=O)CCCN2C(=O)CN(C)C2=O)c1`, the “growth rescue (activation)” value is inactive: 0.124%.

As to `COc1ccc(C2OCC3(CO2)SC(=O)NC3=O)cc1OC` (configuration not stated), the “growth rescue (activation)” value is inactive: 1.22%.

Regarding `COc1ccccc1C(CNc1ncnc2sc(C)c(C)c12)N(C)C` (configuration not stated), the “growth rescue (activation)” value was inactive: -1.91%.

`Cc1cc(SCC(=O)N2CCCC2=O)nc2ccccc12`: the “growth rescue (activation)” value was inactive: 25.3%.

Take `COC(=O)c1c(NC(=O)/C(C#N)=C/c2ccc(OC)cc2)sc2c1C(C(=O)OC)CC2` (configuration not stated): the “growth rescue (activation)” value was inactive: -3.26%.

As for `CCC/C(O)=C1\C(=O)CC(C)(C)CC1=NCc1ccccc1`, the “growth rescue (activation)” value was inactive: 11.2%.

As to `C/C=C(\C)CN1CCCC(CO)(Cc2ccccc2)C1` (configuration not stated), the “growth rescue (activation)” value is inactive: 2.36%.

Consider `CCc1ccc(N(CC(=O)NCc2ccc(F)cc2)C(=O)c2csnn2)cc1`, for which the “growth rescue (activation)” value is inactive: -2.82%.

With `CC(C)NC(=S)NC1(C)CCS(=O)(=O)C1` (configuration not stated), the “growth rescue (activation)” value was inactive: -11%.

For `N#CC(C#N)=Cc1ccc(NC(=O)c2ccc(Br)cc2)cc1`, the “growth rescue (activation)” value was inactive: 21.3%.

Take `CC(=O)c1cc2c(cc1N/C(=N/S(=O)(=O)c1ccc(C)cc1)c1ccc(Cl)cc1)OCO2`: the “growth rescue (activation)” value was inactive: 1.68%.

With `CC(C)(C)NC(=O)CN(c1cccc([N+](=O)[O-])c1)S(=O)(=O)c1ccccc1`, the “growth rescue (activation)” value was inactive: 5.44%.

Regarding `O=C(CSc1nccc(=O)[nH]1)Nc1ccc(F)c([N+](=O)[O-])c1`, the “growth rescue (activation)” value was inactive: 19.3%.

As to `CCN1CCN(c2ccc(NC(=O)c3cccc(N4CCCC4=O)c3)cc2)CC1`, the “growth rescue (activation)” value is inactive: -0.0349%.

Consider `CC[C@H](C)[C@H](NC(=O)c1ccc(Cl)cc1)C(=O)OCC(=O)c1c(N)n(C)c(=O)n(C)c1=O`, for which the “growth rescue (activation)” value was inactive: 10.9%.

Regarding `O=C(CCCC(=O)N(CC(=O)NC1CCCCC1)c1ccccc1F)Nc1ccccn1`, the “growth rescue (activation)” value was inactive: -3.61%.

`CCNC(=O)C1(C)CCCN(C(=O)c2cccnc2Oc2ccccc2)C1` (configuration not stated): the “growth rescue (activation)” value was inactive: -4.12%.

For `N/C(=N/OC(=O)c1ccccc1Cl)c1nonc1N`, the “growth rescue (activation)” value was inactive: -10.5%.

As to `Cc1cc(=O)[nH]c(SCC(=O)N2CCN(c3ccccc3)CC2)n1`, the “growth rescue (activation)” value was inactive: 5.08%.

As to `CC(=O)c1cccc(NC(=S)N2CCN(S(=O)(=O)c3ccccc3)CC2)c1`, the “growth rescue (activation)” value was inactive: 3.55%.

On to `CCOC(=O)CCC(NC(=O)CCC(=O)NC(CCC(=O)OCC)C(=O)OCC)C(=O)OCC` (configuration not stated), for which the “growth rescue (activation)” value is inactive: -1.61%.

Take `O=C(Nc1ccccc1)N1CCCN(Cc2ccccc2F)C1`: the “growth rescue (activation)” value was inactive: 15.4%.

In the case of `COc1ccc(CCNC(=O)CCCOc2ccc(C)cc2)cc1OC`, the “growth rescue (activation)” value is inactive: -1.11%.

Take `CN(C)S(=O)(=O)c1ccc(-c2csc(N/N=C/c3ccc(O)cc3)n2)cc1`: the “growth rescue (activation)” value was inactive: -14.5%.

On to `CCOc1cccc(C(=O)NC(=S)Nc2cccc(NC(=O)c3ccccc3Cl)c2)c1`, for which the “growth rescue (activation)” value is inactive: -4.72%.

For `COC(=O)c1c(NC(=S)Nc2ccc(CC(=O)O)cc2)sc(C)c1C`, the “growth rescue (activation)” value was inactive: 32.6%.

Take `CCC(C)NC(=O)Cn1cnc2sc(C)c(S(=O)(=O)N3CCN(c4ccccc4OC)CC3)c2c1=O` (configuration not stated): the “growth rescue (activation)” value was inactive: -12.9%.

On to `O=C(NNC(=O)C12CC3CC(CC(C3)C1)C2)c1cccc(O)c1`, for which the “growth rescue (activation)” value was inactive: -8.07%.

Take `COC(=O)c1ccc(Cn2nc(-c3cc(C)ccc3C)ccc2=O)cc1`: the “growth rescue (activation)” value is inactive: 36%.

As to `O=C(c1ccc(CN2CCc3ccccc3C2)cc1)N1CCN(c2ccc(F)cc2)CC1`, the “growth rescue (activation)” value was inactive: 24%.

As for `COc1ccccc1NS(=O)(=O)c1ccc(N2CCOCC2)c(N)c1`, the “growth rescue (activation)” value was inactive: 8.6%.

As to `Cc1cc([N+](=O)[O-])ccc1NC(=O)CSc1nncn1-c1cccnc1`, the “growth rescue (activation)” value was inactive: 6.83%.

On to `Cc1noc(C)c1COc1ncnc2ccccc12`, for which the “growth rescue (activation)” value is inactive: 0.584%.

On to `COc1ccc(NC(=O)CSc2nnc(C)n2C2CCCCC2)cc1`, for which the “growth rescue (activation)” value was inactive: 0.609%.

Consider `Cc1ccc(/C=N/NC(=O)Cc2cccs2)o1`, for which the “growth rescue (activation)” value is inactive: 6.31%.

Take `COc1cc(/C=N/NC(=O)Cc2csc(N3CCOCC3)n2)cc(OC)c1O`: the “growth rescue (activation)” value was inactive: -14.8%.
